Results reported in paper PMC10979101.
pKd: −log10 of the molar value. Read-outs that look alike come from different tables or passages of the source.

Columns and labels:
Test in all cases: flow
[1] = molecular target: Gab2 peptide 503-524 (Homo sapiens) (UniProt Q9UQC2)
[2] = molecular target: Gab2 peptide 503-524 (Homo sapiens) (UniProt Q9UQC2); remark: listed apart in the source
[3] = molecular target: Gab2 peptide 503-524 (Homo sapiens) (UniProt Q9UQC2); remark: listed apart in the source

“Grb2 SH2-SH3 SH2-C-SH3 (sequence not shown)” gave a pKd [1] of 5.15, a pKd [2] of 5.64 and a pKd [3] of 5.19.
